# Assay results taken from the supplement of paper PMC11417369.
# ± gives the standard deviation of the averaged measurements. The list shows a part of the results.
# Test system: PfAP2-I AP2 domain 3 (GST-tagged)
# Test: gcPBM binding intensity (ln(normalized median fluorescence intensity)); higher = stronger DNA binding
# In short: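 The binding buffer was 1× PBS containing 1% milk, 0.2 mg/ml BSA, 0.5% salmon testes DNA and 0.03% Triton X-100. In it, GST-tagged P. falciparum DNA-binding domains expressed in E. coli were applied for 1 h to an Agilent 4 × 180k array of primer-extended double-stranded 36-bp intergenic genomic probes plus negative controls. Binding intensity, read with Alexa488 anti-GST antibody and a 488 nm scan, is the highest Masliner-normalised natural-log median intensity across replicate spots of either probe orientation.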
row,Sequence,gcPBM binding intensity (ln)
1,ATGACCCACTTTTCTGCACACATAAAAAATATATAA [CACACA_site8092],9.485 ± 0.007
2,AAAATCTATAATATAACACACATATATTCTATATGG [CACACA_site7821],7.39 ± 0.4
3,CATACATACAGACACACACACATATAAATACATACA [CACACA_site6533],7.96 ± 0.14
4,TTCCTGTTAATTACAACACACAATTCTTATTTTATG [CACACA_site6507],7.98 ± 0.52
5,ATTTTCAAATTCTATGCATGTGTATATTATAGATAA [TGCATGCA_site1003],7.96 ± 0.29
6,CACACGCACAAAAACACACACAAAGGTGTTCTTATA [CACACA_site6724],7.95 ± 0.38
7,AGATATTTCATTTAAAGTACATTCTTTATCACATAA [XGTACX_site6731],7.79 ± 0.53
8,TTATTTTTTTTTTTTCGTACTTATTTATCTTGGTAT [XGTACX_site78],7.72 ± 0.47
9,TATATATATATATATGGTACAGTTTATGCCTTTTAA [XGTACX_site6695],9.52 ± 0.45
10,ATTTTCATGATAAAGGTGCAATTATTTTTATAAGAA,10.9 ± 0.53
11,TTATTTATAATATATACACACTAACATTATTTATCC [CACACA_site4835],7.66 ± 0.56
12,TATAATATATACAAATGTACATATATATATATATAT [XGTACX_site4559],9.32 ± 0.23
13,TTCGTATATTATTAATGTACATTATAAAATCAATAT [XGTACX_site5751],7.87 ± 0.28
14,AAAAAAACATGAAACACACACAAATATATATATATA [CACACA_site1884],9.34 ± 0.45
15,AACAATATTATTGTTTGTACTCACATATATAATATA [XGTACX_site8063],7.63 ± 0.38
16,ATATATATGTGAAAATCACACATTGCTTATCTGTAA [CACACA_site6044],7.59 ± 0.65
17,TGTTTTATTATTTATAGTACATAAAAAAATATTGTA [XGTACX_site8963],7.7 ± 0.37
18,AAGGCATACAATACCTGTACGCAACCTTAAAAAGAA [XGTACX_site6070],7.88 ± 0.53
19,AAAAAAAAAAAAAAAAAAAAAAAAAAAATTCTATAT [GTGCAC_negctrl_site468],9.995 ± 0.049
20,TTATGTCATAAATGCACACATATATAAATACAGATA [CACACA_site4959],9.62 ± 0.44
21,TCTTCAAACAAAAAAAATAATAAAAAGTACAAAATG [CACACA_negctrl_site363],8.07 ± 0.47
22,ATATGTGATTTCTAATGTACACAAAAAAAAAAAAAA [XGTACX_site7701],8.18 ± 0.47

row,Sequence,gcPBM binding intensity (ln)
1,GGGGTATCTTCCTATGCACACTTGTTATGTACTAAC [CACACA_site4610],9.48 ± 0.014
2,TTTTTGTTTTTGTTTTGTACTCATACATACTATCAT [XGTACX_site4210],8.09 ± 0.54
3,ATATATACGTATGAATGTATATTTGTTTGATTTTTT [CACACA_negctrl_site835],7.33 ± 0.59
4,CTTTTATTAAAATTCACACACATAAATTTTTATAAA [CACACA_site1993],7.7 ± 0.48
5,ACCGAAGGAATTTATAGTACACATCATAAATAAATT [XGTACX_site4100],7.79 ± 0.53
6,AATATAAAAAAAAAATGTACATATTATATATATATA [XGTACX_site5113],9.035 ± 0.035
7,AAAAATTTTTTTTCATTTGTTTTTATTCCGTAAAAA [CACACA_negctrl_site1217],7.67 ± 0.74
8,AGTTTGATTTTTTCTTATAATATATTATTATATATT [CACACA_negctrl_site376],7.92 ± 0.66
9,TATAATATAAAATAATGTACTTTGAAATATGACATA [XGTACX_site3579],7.46 ± 0.42
10,TTTTTATTAATAGATATAAATATATAATATGAATGT [TGCATGCA_negctrl_site309],7.57 ± 0.53
11,GAAAATTTAATATAGAACGAAAGCATACACATATAT [GTGCAC_negctrl_site424],7.85 ± 0.65
12,CCATATAATATGAACAGTACACACAAAATAAATTCG [XGTACX_site7590],7.91 ± 0.49
13,AAATATTATAGCACCACACACTTATTTTATATATAT [CACACA_site5281],10.8 ± 0.86
14,ATATATATATATATTTGTACAGATTTATATTATAAT [XGTACX_site7612],9.26 ± 0.57
15,GCGGCGGTATCATGCACACGTATATATTGTAACAGT [CACACA_site4958],8.58 ± 0.72
16,TCATTGAAAAAAATGTGTACTCATCAAGTATATATT [XGTACX_site6430],7.67 ± 0.72
17,TTTACAGATACATTCACACATAAATTCATGTATAAT [CACACA_site5387],7.68 ± 0.49
18,ATTGTTATGAGAACAGCACACAAGCTACATCATATA [CACACA_site8192],8.01 ± 0.43
19,ATATATAATTTTTGTTGTACATTATAAAAATAATTA [XGTACX_site2738],7.82 ± 0.28
20,TTTTAAAAAAATAAAAAATAATAAAAAAAATAAAAA [CACACA_negctrl_site1693],7.47 ± 0.55
21,AATATGATTATTACCCGTACATATTACCTTATGGTA [XGTACX_site1714],7.66 ± 0.5
22,AATGATATTATCTCTTCACACACTCACATACAGACA [CACACA_site8335],7.88 ± 0.61

row,Sequence,gcPBM binding intensity (ln)
1,TATATAAGGATATATACACACATATAGGTATTTATA [CACACA_site7092],7.46 ± 0.39
2,TCAGGAATATAAAGTGCACACATAATTTGGGGGCAA [CACACA_site7974],10.5 ± 0.45
3,GTGCATATGTAGATATGTACATATTTATTTATTATT [XGTACX_site7343],9.15 ± 0.45
4,AAAAATAAATAAAGTGGTACATAAAAAAGAGAAATT [XGTACX_site874],8.36 ± 0.58
5,ATAATATATATACAAACACACAATTGTGTCCACATT [CACACA_site1747],7.96 ± 0.59
6,TGTACATATATATAATATATATATCATCATATTTTC [CACACA_negctrl_site1750],7.64 ± 0.35
7,ATTCACGTGTCTTAAAAAAAAAAAAAAGAAAAAAAG [CACACA_negctrl_site573],7.86 ± 0.48
8,ATATATATATATATATGTACATATATATACATATAT [XGTACX_site6987],9.36 ± 0.38
9,TCCTTAAAATATATCACACATTTCGTTCATTTATAA [CACACA_site4346],7.96 ± 0.61
10,TATATATATATATCCACACACATACAGATATTAAGA [CACACA_site4214],9.41 ± 0.27
11,AGTATACGAATAAAATGTACATACAAATTGTTGTAA [XGTACX_site36],7.84 ± 0.71
12,GGATTTATTATATATACACACATACATATATATATA [CACACA_site8669],9.46 ± 0.32
13,GTCTAAGCTTATAGGCGTACACATGAATATGGATGT [XGTACX_site2439],8.01 ± 0.62
14,ATCAAGCGCAATGTGGTGCGTAAATTTTGTATTATA,10 ± 0.37
15,ATACATAAAATTAAAACACACATTTGATTAAATACG [CACACA_site7088],7.8 ± 0.55
16,AAAGGATACAGACACACACACACATATATATATATA [CACACA_site906],9.27 ± 0.4
17,ATAAGAAAAAAGAACTGTACTAATAAAATATAAAAA [XGTACX_site3715],7.9 ± 0.44
18,ATTATATAATTGTCTTCACACACACCGATATATATA [CACACA_site8883],7.94 ± 0.68
19,TTATAAAATATATATACATGCACAAAATTATAAGTA [TGCATGCA_site294],8.52 ± 0.63
20,AATCAACATTTTTTTTGCTATTTTTTTTTTTAATTA [CACACA_negctrl_site891],7.5 ± 0.84
21,AAAAAAACATAAAATACACACAACCTTAAGAATGTA [CACACA_site3293],7.5 ± 0.59
22,AAAATTTATTATCTATATAATAATATGAAACAAAAC [GTGCAC_negctrl_site731],7.84 ± 0.59

row,Sequence,gcPBM binding intensity (ln)
1,TTTCATTTTTGAAGGTGTACTTAAAATTTATGTAAT [XGTACX_site6671],7.89 ± 0.28
2,CTCATTTTGTTAATGGTGCAAAAAAAAAAAAAAAAA,11.1 ± 0.73
3,ATGAAAAAAAGACATGCATGTAAATATAAATTGCTT [TGCATGCA_site504],7.83 ± 0.91
4,AGTAAGAGGCATTAAGCATGCATATTATTATAAGCA [TGCATGCA_site237],7.89 ± 0.79
5,TATTTAAAACTATACACATGCATTATATAAAGATAT [TGCATGCA_site702],7.95 ± 0.79
6,CATTATAAGAGACACACACACATATATAAATATGTA [CACACA_site6621],7.61 ± 0.38
7,AAAAAATTTATAAAAGCACACAAAATAAAAAAAAAT [CACACA_site8420],8.38 ± 0.49
8,GTATGATGTGAACATTGTACGAATGAATATATCTAA [XGTACX_site3789],7.49 ± 0.57
9,ATATAAGTATACACATGTACATATTTCTTATGTATA [XGTACX_site2854],7.92 ± 0.49
10,TATAAAGACACGTACACACACTAAGTATATCCAATA [CACACA_site6855],8.2 ± 0.071
11,AAAATGTTAAATATTAAATATGAAACAAAAAAAAAA [GTGCAC_negctrl_site211],8.01 ± 0.69
12,TAAATACATTTATATACACACCTATATATATATATA [CACACA_site5137],9.1 ± 0.26
13,TCCAAATGAAAAAATTGTACATATTTTATCATATAT [XGTACX_site6159],7.5 ± 0.56
14,TATAATTTAAAATACACACACATATATATAATATAT [CACACA_site2000],7.71 ± 0.47
15,ATAAGAAATTTCATACGTACATAAATAAATATATAT [XGTACX_site2932],7.95 ± 0.52
16,TAAAAAAAAGGAAATACATGCATCTACATATATATA [TGCATGCA_site500],8.04 ± 0.98
17,ATATATTTCATTTTTGTACACACAACGTTGGAGGGT [CACACA_site8999],8.25 ± 0.47
18,AAAAAAAAAATATATATATATATATAATATATATAT [TGCATGCA_negctrl_site329],9.05 ± 0.27
19,ATATAGGTAATAATAATACACACGGTGAAATATAGA [CACACA_site4040],7.94 ± 0.44
20,AAAAACTAACTGTATTGTACTCTCTTATAAATTCAC [XGTACX_site8967],7.66 ± 0.57
21,TATTGTAAAGTGTCATTATTACGTTATATTATATAT [CACACA_negctrl_site98],7.62 ± 0.48
22,GACAATATTAAAACATGTACATGCATTTTATGAATA [XGTACX_site553],7.84 ± 0.68
